Data taken from publication PMC7511005.
These are yes or no findings as the source states them, for the method shown. Tags and fused reporters may be left off the sequences shown.

Assays:
[1] = biological target: T1, EHD1 aa1-309, yeast two-hybrid fusion (UniProt Q9H4M9); experiment: two-hybrid; AH109 yeast co-transformed with pGADT7 and pGBKT7 fusions; growth on -His plates, 30°C, 72 h
T1 sequence: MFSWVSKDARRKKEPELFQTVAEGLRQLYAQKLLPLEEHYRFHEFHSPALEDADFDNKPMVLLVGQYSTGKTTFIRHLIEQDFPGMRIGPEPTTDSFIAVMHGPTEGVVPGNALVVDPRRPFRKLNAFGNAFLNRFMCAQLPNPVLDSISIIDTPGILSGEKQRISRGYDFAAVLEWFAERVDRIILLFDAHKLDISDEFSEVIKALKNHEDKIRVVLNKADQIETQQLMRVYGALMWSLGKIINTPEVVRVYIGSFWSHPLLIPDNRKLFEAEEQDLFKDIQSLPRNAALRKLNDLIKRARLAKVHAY

[2] = biological target: T2, EHD3Δcc (full-length EHD3 with a valine to proline substitution at residue 203), yeast two-hybrid fusion (UniProt Q9NZN3); experiment: as above
T2 sequence: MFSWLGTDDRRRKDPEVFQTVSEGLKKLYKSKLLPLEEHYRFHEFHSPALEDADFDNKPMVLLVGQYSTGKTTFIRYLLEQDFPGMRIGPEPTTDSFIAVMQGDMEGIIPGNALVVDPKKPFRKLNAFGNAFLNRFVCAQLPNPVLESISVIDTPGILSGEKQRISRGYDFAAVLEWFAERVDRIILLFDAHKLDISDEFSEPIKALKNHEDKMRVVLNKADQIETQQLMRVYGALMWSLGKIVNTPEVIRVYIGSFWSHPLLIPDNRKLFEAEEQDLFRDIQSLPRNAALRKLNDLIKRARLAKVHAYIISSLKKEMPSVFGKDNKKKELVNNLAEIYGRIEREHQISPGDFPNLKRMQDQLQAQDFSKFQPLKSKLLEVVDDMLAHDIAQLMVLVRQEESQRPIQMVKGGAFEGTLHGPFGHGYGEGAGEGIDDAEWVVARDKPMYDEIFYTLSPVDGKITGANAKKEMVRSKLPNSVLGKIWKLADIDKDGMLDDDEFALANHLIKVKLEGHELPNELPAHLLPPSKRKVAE

binding [1]: no binding
binding [2]: no binding
B1: EHD4, yeast two-hybrid fusion (protein, UniProt Q9H223 1-541)
chain: MFSWMGRQAGGRERAGGADAVQTVTGGLRSLYLRKVLPLEEAYRFHEFHSPALEDADFENKPMILLVGQYSTGKTTFIRYLLEQDFPGMRIGPEPTTDSFIAVMYGETEGSTPGNALVVDPKKPFRKLSRFGNAFLNRFMCSQLPNQVLKSISVIDSPGILSGEKQRISRGYDFCQVLQWFAERVDRIILLFDAHKLDISDEFSEAIKAFRGQDDKIRVVLNKADQVDTQQLMRVYGALMWSLGKVINTPEVLRVYIGSFWAQPLQNTDNRRLFEAEAQDLFRDIQSLPQKAAVRKLNDLIKRARLAKVHAYIISYLKKEMPSVFGKENKKRELISRLPEIYIQLQREYQISAGDFPEVKAMQEQLENYDFTKFHSLKPKLIEAVDNMLSNKISPLMNLISQEETSTPTQLVQGGAFDGTTEGPFNQGYGEGAKEGADEEEWVVAKDKPVYDELFYTLSPINGKISGVNAKKEMVTSKLPNSVLGKIWKLADCDCDGMLDEEEFALAKHLIKIKLDGYELPSSLPPHLVPPSHRKSLPKAD
